The campaign covered roughly 310,000 compounds. About 2,200 (0.71%) showed an effect of 50% or more. Effects have a minus sign here. Some of the results follow.
Target: human ether-à-go-go-related gene (hERG) potassium channel (human, UniProt Q12809)
Assay: primary screen, population patch clamp on CHO cells stably expressing hERG

Sequence of human ether-à-go-go-related gene (hERG) potassium channel (Q12809 whole entry, looked up): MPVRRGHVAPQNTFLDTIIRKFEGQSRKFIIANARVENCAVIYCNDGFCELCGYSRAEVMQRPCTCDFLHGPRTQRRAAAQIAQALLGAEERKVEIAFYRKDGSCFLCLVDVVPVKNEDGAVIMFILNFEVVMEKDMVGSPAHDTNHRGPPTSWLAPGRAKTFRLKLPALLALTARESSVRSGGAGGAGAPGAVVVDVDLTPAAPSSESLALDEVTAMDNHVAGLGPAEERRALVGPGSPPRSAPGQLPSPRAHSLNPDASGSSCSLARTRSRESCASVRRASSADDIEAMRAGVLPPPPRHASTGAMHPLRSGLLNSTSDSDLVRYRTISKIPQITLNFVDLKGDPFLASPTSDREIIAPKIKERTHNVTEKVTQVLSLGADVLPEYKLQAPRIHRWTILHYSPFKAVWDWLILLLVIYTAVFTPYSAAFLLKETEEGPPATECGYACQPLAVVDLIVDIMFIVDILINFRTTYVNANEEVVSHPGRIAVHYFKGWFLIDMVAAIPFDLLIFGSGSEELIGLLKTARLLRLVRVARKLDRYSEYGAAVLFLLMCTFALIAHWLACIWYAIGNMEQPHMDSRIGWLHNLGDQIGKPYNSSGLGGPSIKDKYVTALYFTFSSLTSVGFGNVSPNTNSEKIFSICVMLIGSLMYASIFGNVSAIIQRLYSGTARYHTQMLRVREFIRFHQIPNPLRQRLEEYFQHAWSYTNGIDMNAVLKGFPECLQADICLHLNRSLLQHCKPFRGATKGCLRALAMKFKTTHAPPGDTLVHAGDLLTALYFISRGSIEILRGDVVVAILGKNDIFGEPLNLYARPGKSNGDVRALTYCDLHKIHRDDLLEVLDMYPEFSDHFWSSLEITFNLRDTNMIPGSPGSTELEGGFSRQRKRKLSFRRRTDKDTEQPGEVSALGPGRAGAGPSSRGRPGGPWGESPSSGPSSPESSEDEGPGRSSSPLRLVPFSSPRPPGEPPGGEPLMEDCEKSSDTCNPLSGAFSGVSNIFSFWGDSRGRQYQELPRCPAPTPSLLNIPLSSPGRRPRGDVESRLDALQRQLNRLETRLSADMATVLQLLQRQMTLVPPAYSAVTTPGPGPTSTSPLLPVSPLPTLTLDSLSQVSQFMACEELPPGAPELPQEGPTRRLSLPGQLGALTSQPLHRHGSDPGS

Going from `CCOC(=O)c1nnn(-c2nonc2N)c1CSc1ccccn1` to `CCOc1ccc(CSC(=N)N)cc1[N+](=O)[O-].Cl`, the “hERG current change (%, negative = inhibition) at 1uM” value falls from 6.99% to -50.3%.

First: COc1ccc(Cn2c(-c3ccc(Br)cc3)c[n+]3ccccc23)cc1.[Br-]
Second: COc1ccc(COC(=O)CCNC(=O)c2ccc(Cl)cc2)cc1
The “hERG current change (%, negative = inhibition) at 1uM” value of the first is higher: 6.43% for the first, -7.35% for the second.

First: Cc1ccc(C(=O)Nc2ccccc2C(=O)O)cc1NC(=O)COc1c(C)cccc1C
Second: CCOc1ccc(NC(=O)c2ccccc2-c2ccccc2C(=O)O)cc1
The “hERG current change (%, negative = inhibition) at 1uM” value of the first is higher: 29.3% for the first, 12.9% for the second.

Going from `C/C(=N/O)c1ccc(Oc2cnccn2)cc1` to `CCOc1ccc(-n2cccc2C=O)cc1`, the “hERG current change (%, negative = inhibition) at 1uM” value rises from -0.64% to -0.381%.

First: Cc1c(NC(=O)c2cc3ccccc3oc2=O)c(=O)n(-c2ccccc2)n1C
Second: Cn1c(=O)c2nc(-c3ccccc3)c(-c3ccccc3)nc2n(C)c1=O
The “hERG current change (%, negative = inhibition) at 1uM” value of the first is lower: -4.35% for the first, 3.26% for the second.

Going from `O=c1[nH]c(=O)n([C@H]2C[C@H](O)[C@@H](CO)O2)cc1C(F)(F)F` to `CCCOc1ccc(S(=O)(=O)n2cc(Br)c(=O)[nH]c2=O)cc1`, the “hERG current change (%, negative = inhibition) at 1uM” value falls from 18% to -5.19%.

Going from `COc1ccc(N2CCN(S(=O)(=O)c3ccc4c(c3)CCCC4)CC2)c([N+](=O)[O-])c1` to `COc1ccc(CN2CCN(S(=O)(=O)c3ccccc3)CC2)c(OC)c1OC`, the “hERG current change (%, negative = inhibition) at 1uM” value rises from 11.1% to 14.9%.

Compared with `O=C(Nc1cn(-c2ccccc2)nc1-c1cccs1)c1ccco1`, `CCC(C)C(NC(=O)c1ccccc1NC(=O)c1ccco1)C(=O)O` (stereo not drawn) is higher in “hERG current change (%, negative = inhibition) at 1uM” value: -0.954% for the first, 4.13% for the second.

First: Cn1c(=O)[nH]c(=O)c2c1nc(N1CCCCC1)n2CCSc1ncccn1
Second: Cc1ccc(C(=O)NCc2ccccn2)cc1S(=O)(=O)N1CCCCC1
The “hERG current change (%, negative = inhibition) at 1uM” value of the first is lower: 11.4% for the first, 18.4% for the second.

Compared with `CCC(NC(=O)Nc1nccs1)(C(F)(F)F)C(F)(F)F`, `O=C(C[n+]1ccccc1)Nc1nc2ccccc2s1.[Cl-]` is higher in “hERG current change (%, negative = inhibition) at 1uM” value: 3.1% for the first, 10.3% for the second.

Going from `O=C(Nc1cccc2ncccc12)C12CC3CC(CC(C3)C1)C2` to `O=C(C1CCN(S(=O)(=O)c2cccs2)CC1)N(c1ccccn1)C1CCCCC1`, the “hERG current change (%, negative = inhibition) at 1uM” value rises from 3.5% to 11.2%.

Going from `CCN1CCCc2cc(CN(CCN3CCOCC3)C(=S)Nc3ccccc3OC)ccc21` to `CCOC(=O)N1CCc2c(sc(NC(=O)CN3CCOCC3)c2C(=O)Nc2ccccc2)C1`, the “hERG current change (%, negative = inhibition) at 1uM” value falls from 3.62% to -31.9%.

Compared with `CCc1nc2sc3c(c2c(=O)n1N)CCC3`, `COc1ccc(C(=O)c2c(N)sc3c2CCN(C)C3)cc1` is lower in “hERG current change (%, negative = inhibition) at 1uM” value: 14.6% for the first, 5.51% for the second.

Going from `O=C(COC(=O)Cc1ccccc1)Nc1cc(S(=O)(=O)N2CCCCC2)ccc1Cl` to `Cc1ccc(NC(=O)C(=O)NCCN2CCN(S(=O)(=O)c3ccccc3)CC2)cc1C`, the “hERG current change (%, negative = inhibition) at 1uM” value rises from -17.8% to 13.8%.

First: CCN(CC(=O)Nc1ccc2c(c1)OCCO2)C(=O)c1cc(Cl)nc2ccccc12
Second: Cc1ccc(NC(=O)CCOc2ccccc2C)cc1F
The “hERG current change (%, negative = inhibition) at 1uM” value of the first is lower: 1.02% for the first, 13.3% for the second.

First: c1ccc(-n2nnc3ccccc32)cc1
Second: O=S(=O)(Cc1ccccc1)c1nc2ccccc2n1Cc1ccccn1
The “hERG current change (%, negative = inhibition) at 1uM” value of the first is lower: 5.86% for the first, 6.47% for the second.

First: O=C(CNC(=O)c1ccco1)N/N=C/c1cc(Br)ccc1O
Second: O=C(COC(=O)c1ccc(Br)o1)Nc1ccc(Br)cc1
The “hERG current change (%, negative = inhibition) at 1uM” value of the first is higher: 15.2% for the first, 11% for the second.

Going from `O=C(C1Cc2ccccc2CN1C(=O)c1ccccc1)N1CCN(c2ccccc2)CC1` (stereo not drawn) to `CCN(Cc1ccccc1)S(=O)(=O)c1ccc(C(=O)N2CCN(c3nc4ccccc4s3)CC2)cc1`, the “hERG current change (%, negative = inhibition) at 1uM” value rises from 5.16% to 8.29%.

First: CCCN1Cc2cccc(C(=O)N3CCN(c4ccc(F)cc4)CC3)c2C1=O
Second: COc1ccc(N2CCN(C(=O)c3ccc(C)cc3Cl)CC2)cc1
The “hERG current change (%, negative = inhibition) at 1uM” value of the first is higher: 3.75% for the first, -2.45% for the second.

First: COc1ccc(CCN(C)C(=S)NC(=O)c2ccc(F)cc2Cl)cc1OC
Second: COc1ccc(/C(C)=N\Nc2nc(-c3ccc(Cl)cc3)cc(C(F)(F)F)n2)cc1OC
The “hERG current change (%, negative = inhibition) at 1uM” value of the first is higher: 14.8% for the first, 7.07% for the second.

First: CCOc1ccc(C(=O)NCC2CCCO2)cc1OCC (stereo not drawn)
Second: CCC(C)(C)NC(=O)C(c1ccc(C)cc1)N(CC1CCCO1)C(=O)CCC(=O)Nc1ccccn1 (stereo not drawn)
The “hERG current change (%, negative = inhibition) at 1uM” value of the first is higher: 22.7% for the first, 17.8% for the second.

Going from `Cc1ccc(SC(C)C(=O)Nc2ccccc2C(=O)N2CCOCC2)cc1` (stereo not drawn) to `Cc1ccc(-n2c(=O)[nH]cc(C(=O)N3CCc4ccccc43)c2=O)cc1`, the “hERG current change (%, negative = inhibition) at 1uM” value falls from 9.24% to 7.77%.

Compared with `CSc1cc(C)n(-c2ccccc2)c(=S)c1C(C)=O`, `Cc1ccn(CCC(=O)N2c3ccccc3CC2C)n1` (stereo not drawn) is higher in “hERG current change (%, negative = inhibition) at 1uM” value: 13.4% for the first, 16% for the second.

Going from `Cc1ccc(-c2noc(-c3cc(C(C)(C)C)nn3Cc3ccccc3)n2)cc1` to `COc1ccccc1Nc1nc2cc(C)ccc2cc1C#N`, the “hERG current change (%, negative = inhibition) at 1uM” value rises from 11.9% to 12%.

Compared with `CN1N=C2c3ccccc3CCC2C1c1ccc(F)cc1` (stereo not drawn), `O=C(NCCC1CCCCN1S(=O)(=O)c1ccccc1)C(=O)NCc1ccc(F)cc1` (stereo not drawn) is lower in “hERG current change (%, negative = inhibition) at 1uM” value: 11.4% for the first, -16.4% for the second.

Going from `O=C(NC(=S)NCc1ccco1)c1ccccc1[N+](=O)[O-]` to `CCN1C(=O)CSc2ccc(C(=O)NCc3ccco3)cc21`, the “hERG current change (%, negative = inhibition) at 1uM” value falls from 12.6% to 10.4%.

Going from `COc1ccc(N(C(=O)C(C)C)S(=O)(=O)c2cccs2)cc1` to `Cc1nc2cccc(C(=O)Oc3ccc([N+](=O)[O-])cc3)c2o1`, the “hERG current change (%, negative = inhibition) at 1uM” value rises from 1.6% to 4.59%.

Compared with `CCOC(=O)C1(C)NC(c2cc(OC)c(OC)c(OC)c2)C2C(=O)N(CC)C(=O)C21` (stereo not drawn), `COc1ccc(/C=N/n2c(SC)nnc(C(C)(C)C)c2=O)cc1OC` is higher in “hERG current change (%, negative = inhibition) at 1uM” value: 7.97% for the first, 9.96% for the second.

Compared with `COc1ccc(/C=C(/C#N)C(=O)Nc2ccc(O)cc2)cc1C(=O)O`, `COc1ccc2c(c1OC)C(=O)N(c1ccc(O)cc1)C2` is higher in “hERG current change (%, negative = inhibition) at 1uM” value: 9.58% for the first, 11.2% for the second.

Going from `COc1nnc(-c2ccc(C)c(S(=O)(=O)NC(C)C)c2)c2ccccc12` to `COC(=O)c1ccc(COC(=O)C(CCS(C)(=O)=O)N2C(=O)c3ccccc3C2=O)cc1` (stereo not drawn), the “hERG current change (%, negative = inhibition) at 1uM” value rises from -5.36% to -2.75%.

Going from `CC1Cc2c([nH]c3ccccc23)C(=O)N1` (stereo not drawn) to `Cc1nc2ccccc2c2c1C(=O)NC2=O`, the “hERG current change (%, negative = inhibition) at 1uM” value falls from 15.1% to 10.4%.

Going from `O=C(COc1ccc(Cl)cc1)Nc1ccccc1Cl` to `O=C(COc1ccc(Br)cc1)N/N=C1/SCC(=O)N1Cc1ccco1`, the “hERG current change (%, negative = inhibition) at 1uM” value falls from 9.01% to -22.5%.

First: CC(=O)/C(=N/Nc1ccc(Br)cc1)Sc1cccc2cccnc12
Second: CCCCC(=O)Nc1cccc(NC(=O)c2ccc(Br)cc2)c1
The “hERG current change (%, negative = inhibition) at 1uM” value of the first is lower: 1.12% for the first, 19.4% for the second.

First: CCn1c(=O)cc(OCC(=O)Nc2cccnc2)c2ccccc21
Second: Cc1cc(OC(C)C(=O)NCc2cccnc2)c2c(C)cc(=O)oc2c1 (stereo not drawn)
The “hERG current change (%, negative = inhibition) at 1uM” value of the first is lower: 7.88% for the first, 9.3% for the second.

Compared with `O=S(=O)(NC1CCCCC1Sc1ncccn1)c1ccc(Cl)cc1` (stereo not drawn), `O=C(Nc1ccc(N2CCOCC2)nc1)c1ccc(Cl)cc1` is lower in “hERG current change (%, negative = inhibition) at 1uM” value: 4.13% for the first, -2.62% for the second.

Compared with `O=C(Nc1ccc(/C=C/c2nc3ccccc3o2)cc1)c1ccc(F)cc1`, `COc1cc(OC)cc(C(=O)Nc2ccc(C(=O)c3ccncc3)cc2)c1` is higher in “hERG current change (%, negative = inhibition) at 1uM” value: 9.29% for the first, 11.8% for the second.

First: COC(=O)c1c(NC(=O)COC(=O)[C@@H](NS(=O)(=O)c2ccc(C)cc2)C(C)C)sc2c1CCC2
Second: O=C(NCCC1CCCCN1S(=O)(=O)c1cccs1)C(=O)Nc1ccccc1 (stereo not drawn)
The “hERG current change (%, negative = inhibition) at 1uM” value of the first is higher: 15.1% for the first, 12.7% for the second.

Going from `CSc1cccc(NC(=O)/C=C/c2ccco2)c1` to `O=C(COC(=O)c1cnc(Cl)c(Cl)c1)NCc1ccco1`, the “hERG current change (%, negative = inhibition) at 1uM” value falls from 11% to 2.55%.

First: CCC(=O)N(Cc1ccco1)Cc1cc2cc3c(cc2[nH]c1=O)OCO3
Second: CCOC(=O)C1=C(CNCc2ccccc2Cl)NC(=O)NC1c1cccc([N+](=O)[O-])c1 (stereo not drawn)
The “hERG current change (%, negative = inhibition) at 1uM” value of the first is higher: 15.1% for the first, -4.17% for the second.

First: CCn1c(SCC(=O)OC)nnc1C1CCCCC1
Second: COc1ccc(C(=O)C2CCCN(C(=O)c3cccs3)C2)cc1F (stereo not drawn)
The “hERG current change (%, negative = inhibition) at 1uM” value of the first is lower: -2.08% for the first, 5.97% for the second.

First: COc1ccc(OCC#CCN2CCNCC2)cc1.O=C(O)C(=O)O
Second: CCN1CCN(c2oc(-c3ccc(OC)cc3)nc2C#N)CC1
The “hERG current change (%, negative = inhibition) at 1uM” value of the first is higher: 17.8% for the first, -25.6% for the second.

First: CC(=O)N[C@@H](CC(=O)O)C(=O)O
Second: C=C(NC(C)=O)c1c(F)cccc1F
The “hERG current change (%, negative = inhibition) at 1uM” value of the first is lower: 8.96% for the first, 20.4% for the second.

Compared with `NC(=O)CCN1CCN(S(=O)(=O)/C=C/c2ccccc2)CC1`, `O=C1CC(c2cccc([N+](=O)[O-])c2)c2ccc3ccccc3c2N1` (stereo not drawn) is lower in “hERG current change (%, negative = inhibition) at 1uM” value: 12.7% for the first, 1.72% for the second.

First: Cc1cc(C)c(S(=O)(=O)NCCCn2ccnc2)cc1C
Second: Cc1cc(Cl)c2ccc(Cl)cc2n1
The “hERG current change (%, negative = inhibition) at 1uM” value of the first is lower: 9.48% for the first, 10.1% for the second.

Compared with `NC(=S)Nc1ccc(Oc2ccc(NC(N)=S)cc2)cc1`, `NC(=O)CC(NC(=O)c1ccc(Br)cc1)c1ccc(NCCc2ccc(F)cc2)c([N+](=O)[O-])c1` (stereo not drawn) is lower in “hERG current change (%, negative = inhibition) at 1uM” value: 12.4% for the first, 11% for the second.

— PMC4336329 (PLoS ONE, 2015)
